In patent publication US20220162323A1:

Target: FGFR2c on NCI-H716 cells (human), P21802
Experiment: cell-based or functional assay

Sequence of FGFR2c on NCI-H716 cells (human), P21802 (P21802 22-821): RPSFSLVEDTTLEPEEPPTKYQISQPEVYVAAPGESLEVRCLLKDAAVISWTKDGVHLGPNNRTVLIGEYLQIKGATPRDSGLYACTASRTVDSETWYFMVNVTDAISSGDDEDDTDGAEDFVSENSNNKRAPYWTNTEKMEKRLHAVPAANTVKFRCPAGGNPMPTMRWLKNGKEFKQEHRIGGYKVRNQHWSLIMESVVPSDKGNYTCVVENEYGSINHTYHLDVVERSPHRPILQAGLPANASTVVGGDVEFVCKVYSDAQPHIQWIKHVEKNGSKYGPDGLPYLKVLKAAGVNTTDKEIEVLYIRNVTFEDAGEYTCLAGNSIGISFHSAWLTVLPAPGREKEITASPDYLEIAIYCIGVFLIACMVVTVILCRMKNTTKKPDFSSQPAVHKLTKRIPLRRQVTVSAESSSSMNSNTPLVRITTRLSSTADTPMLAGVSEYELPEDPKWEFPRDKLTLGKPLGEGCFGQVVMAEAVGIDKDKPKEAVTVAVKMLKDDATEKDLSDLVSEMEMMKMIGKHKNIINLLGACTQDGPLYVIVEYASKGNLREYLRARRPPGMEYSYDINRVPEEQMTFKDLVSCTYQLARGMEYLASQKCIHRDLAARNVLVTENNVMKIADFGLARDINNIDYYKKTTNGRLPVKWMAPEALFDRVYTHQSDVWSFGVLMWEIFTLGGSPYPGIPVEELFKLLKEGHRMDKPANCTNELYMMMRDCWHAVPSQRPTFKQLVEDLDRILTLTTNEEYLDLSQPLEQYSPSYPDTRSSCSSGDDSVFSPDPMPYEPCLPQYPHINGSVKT

B1: mAb2-maytansinoid 1ALP (antibody)
heavy: QVQLVESGGGVVQPGKSLRLSCAASGFTFSNYGMHWVRQTPVKGLEWVTLIWYDGSNKYYTDSVKGRFTISRDNSKNTLYLQMNSLRSEDTAVYYCAREGNWNYGHAFDIWGQGTMVTVSSASTKGPSVFPLAPCSRSTSESTAALGCLVKDYFPEPVTVSWNSGALTSGVHTFPAVLQSSGLYSLSSVVTVPSSSLGTKTYTCNVDHKPSNTKVDKRV[human IgG4 Fc with S228P (EU numbers) omitted]
light: DIQMTQSPSTLSASVGDRVTITCRASQNIGNWLAWYQQKPGKAPNLLIYKASTLESGVPSRFSGSGSGTEFTLTISSLQPDDFATYNCQQYNSYSPTFGQGTKLEIKRTVAAPSVFIFPPSDEQLKSGTASVVCLLNNFYPREAKVQWKVDNALQSGNSQESVTEQDSKDSTYSLSSTLTLSKADYEKHKVYACEVTHQGLSSPVTKSFNRGEC
modifications: here or on the partner: maytansinoid 1ALP (mc-VC-PAB-NMe-C3-May) linker-payload conjugated; residues not stated in Example 5; DAR 1.9 per antibody
- IC50 (M), CellTiter-Glo cytotoxicity, NCI-H716 cells, 6 days: > 2e-08 M
- Max % Kill, NCI-H716 cells: 17%

B2: mAb2-tubulysin 1ALP (antibody)
heavy: B1 heavy
light: B1 light
modifications: here or on the partner: deglycosylated; Q295 carries azido-PEG3-amine clicked to Tubulysin 1A-LP; DAR 2.1 per antibody
- IC50 (M), CellTiter-Glo cytotoxicity, NCI-H716 cells, 6 days: > 2e-08 M
- Max % Kill, NCI-H716 cells: 30.9%
